In paper PMC10668032:
Some of the results follow. At the low end of the ranking the order means little.

target: SIX1 homeodomain (reference allele) (UniProt Q15475); experiment: universal protein binding microarray; details: Universal all-10-mer PBM (8x60K, AMADID 030236), 300 nM GST-tagged protein, Alexa Fluor 488 anti-GST; buffer, salt, pH and temperature not stated; high values mean tight binding; most listed sequences are background and not binding sites; double strand, one strand shown

| Sequence | binding signal |
| --- | --- |
| ACTTAACA | -0.212 E-score |
| ATAGCTAC | 0.163 E-score |
| ACTAACCT | -0.162 E-score |
| ATTATGAA | 0.141 E-score |
| ACCGAATG | 0.0121 E-score |
| GGGTCAAA | 0.0897 E-score |
| TGCGTAAA | -0.266 E-score |
| AATTGCAG | -0.28 E-score |
| AATCCTAG | -0.0499 E-score |
| AGTCACCG | -0.102 E-score |
| GGAGTGGA | -0.141 E-score |
| TCCGTTAA | -0.0746 E-score |
| GTTAATGA | -0.156 E-score |
| GCACCGGA | 0.0357 E-score |
| ACTTTCGA | -0.0418 E-score |
| CACCGACC | -0.0487 E-score |
| CATATGAA | -0.0809 E-score |
| AGAGAAGA | -0.037 E-score |
| ACGCGACA | 0.0124 E-score |
| GACACGTC | -0.112 E-score |
| AGGCTAGC | -0.0839 E-score |
| ACGATCGA | 0.151 E-score |
| CCTAGGAC | -0.124 E-score |
| GCTGCGTA | -0.0881 E-score |
| ATGAGCAT | -0.0884 E-score |

| Sequence | binding signal |
| --- | --- |
| CGAGTGAA | -0.0677 E-score |
| ACATATTA | 0.161 E-score |
| ATTCTCTC | -0.0415 E-score |
| ACAAGAAC | -0.169 E-score |
| ACCCACGT | 0.0305 E-score |
| ATATTGAA | 0.196 E-score |
| TGAGTCAA | -0.143 E-score |
| CGGGCCCC | -0.214 E-score |
| CAACGTAA | -0.168 E-score |
| ATGTCTGA | 0.141 E-score |
| CTCCCAAG | -0.0821 E-score |
| AGCAGGCG | -0.0572 E-score |
| CGCAGGCG | -0.244 E-score |
| CGTAAAAA | -0.239 E-score |
| CTTAGCCC | -0.0707 E-score |
| AGAGTACT | -0.126 E-score |
| CGGACCCC | -0.131 E-score |
| CCGGCAAG | -0.0426 E-score |
| CAGGCAAC | -0.179 E-score |
| GTAAGGCA | -0.0827 E-score |
| AAGTACGA | -0.0507 E-score |
| CACGGAGA | 0.0319 E-score |
| GCTAAACA | -0.252 E-score |
| CACTGACG | 0.0521 E-score |
| ATCCGCCA | 0.332 E-score |

| Sequence | binding signal |
| --- | --- |
| ACAGACCT | -0.17 E-score |
| CACCCGAG | 0.189 E-score |
| CACGTGCA | -0.0357 E-score |
| ATAGCCCG | 0.112 E-score |
| CGGGGGGA | 0.041 E-score |
| CGTTCAAG | -0.0607 E-score |
| CCACGAAA | -0.158 E-score |
| CACAAGTC | -0.195 E-score |
| GAACTCAC | -0.241 E-score |
| ATCTGTGA | 0.236 E-score |
| CCTGTGCG | -0.0297 E-score |
| AAGAGCGT | -0.127 E-score |
| AGGAAGCC | 0.0124 E-score |
| ATTCGGAA | -0.0242 E-score |
| CCGCCACC | -0.0987 E-score |
| ATCCTTAA | 0.0756 E-score |
| AGCCTTCA | -0.221 E-score |
| GTAATGAA | -0.103 E-score |
| GGTCAGCA | -0.111 E-score |
| ACACGCAG | 0.0397 E-score |
| GTCGGCGA | -0.2 E-score |
| CGTATGAG | -0.00144 E-score |
| TAACACCA | 0.299 E-score |
| CCTTAGCA | -0.0861 E-score |
| AGGCCAAC | -0.0899 E-score |

| Sequence | binding signal |
| --- | --- |
| AATTGGAG | -0.0739 E-score |
| CCTAAATA | -0.0465 E-score |
| CGATTGCC | 0.0541 E-score |
| ACTACGGC | -0.107 E-score |
| AAGATTGA | -0.0213 E-score |
| AGTAAACT | -0.114 E-score |
| AATTGTGA | 0.185 E-score |
| GCGTAAAA | -0.264 E-score |
| GCATTACA | -0.153 E-score |
| AGGGTCTA | -0.0865 E-score |
| ACCTTCTC | 0.147 E-score |
| AGTAGTAG | 0.0732 E-score |
| CTCTTGGA | -0.0365 E-score |
| ACGGATAT | 0.428 E-score |
| CCCTGACC | -0.0314 E-score |
| GGCCGAAA | -0.146 E-score |
| AATGCAGT | -0.123 E-score |
| TACTTCTA | 0.179 E-score |
| CTCATTAC | 0.0761 E-score |
| ACAAACGT | -0.24 E-score |
| ACACCGGC | 0.28 E-score |
| AATGGTCT | -0.139 E-score |
| ACGCTGTG | -0.163 E-score |
| TGCTCAAA | -0.202 E-score |
| TGGCACAA | -0.347 E-score |

| Sequence | binding signal |
| --- | --- |
| GTCCGGCA | -0.107 E-score |
| GCCACATA | 0.0342 E-score |
| TGGGACCA | -0.0713 E-score |
| ATCGGCCA | 0.0853 E-score |
| AGCATGCC | -0.241 E-score |
| AGTTATTC | -0.0532 E-score |
| GGGTTGGA | -0.0212 E-score |
| CAAGGCTC | -0.174 E-score |
| ACACTTAT | -0.0115 E-score |
| AATCGGAG | 0.0749 E-score |
| ATGGTTTG | 0.037 E-score |
| ATCAGGAA | 0.165 E-score |
| GATGACGA | 0.00198 E-score |
| ATGAGATG | 0.243 E-score |
| CGGCAGGC | -0.0966 E-score |
| GAGACTCA | -0.193 E-score |
| CCATAATA | 0.299 E-score |
| AAGTGCTG | -0.389 E-score |
| CGGTGCGA | 0.0228 E-score |
| CTCAAGCA | -0.117 E-score |
| GGGATTTA | 0.124 E-score |
| ATTGGCGA | 0.0128 E-score |
| ATCTAGAC | 0.161 E-score |
| GAGCCTAC | -0.0272 E-score |
| GCAATGGA | -0.114 E-score |

| Sequence | binding signal |
| --- | --- |
| CTCTCGTA | -0.0431 E-score |
| GAATTTTA | -0.2 E-score |
| GTCCTGTA | -0.119 E-score |
| AGGTTACA | -0.119 E-score |
| AGGTGTCC | 0.274 E-score |
| GCTCAATA | 0.0657 E-score |
| ATACACTG | 0.338 E-score |
| GGGCGTTA | -0.166 E-score |
| AAAACCAA | -0.227 E-score |
| GTTGCTAA | -0.093 E-score |
| ACAAAGAG | -0.0436 E-score |
| CAGGGCCC | -0.218 E-score |
| CTGCCGGC | -0.262 E-score |
| ATCTTTCA | 0.147 E-score |
| CTTAGAAG | 0.113 E-score |
| ATGCCCGA | 0.0549 E-score |
| AAGGCCGC | -0.256 E-score |
| GCGTTGCA | -0.0762 E-score |
| CGTGTAGC | -0.0544 E-score |
| CGTGCTAC | -0.196 E-score |
| AAGTCCCC | -0.313 E-score |
| GTTTGACA | 0.0344 E-score |
| AATAAACA | -0.19 E-score |
| ACTGGCAC | 0.0178 E-score |
| CAAGTCAA | -0.141 E-score |

| Sequence | binding signal |
| --- | --- |
| ATCAAAGA | 0.0736 E-score |
| CTGGTATA | 0.255 E-score |
| ACGGCCGC | -0.14 E-score |
| ATTTTGCA | -0.25 E-score |
| ATCCCCCA | 0.392 E-score |
| ACCGTTTA | -0.00455 E-score |
| ACGTGGTG | 0.109 E-score |
| GGTGGCCA | -0.228 E-score |
| GCACCGGC | -0.0302 E-score |
| CCCGTCCC | -0.0319 E-score |
| AAAGCGTA | -0.0808 E-score |
| CAACCGAG | -0.0891 E-score |
| ATATACAC | 0.35 E-score |
| TCCATAAA | -0.163 E-score |
| CTCTACTC | -0.0443 E-score |
| AAGTTTGG | -0.232 E-score |
| GAGTAATC | 0.0857 E-score |
| CACAGCAG | -0.0291 E-score |
| ATTCCAAG | -0.0107 E-score |
| AAGTTGGA | -0.123 E-score |
| ACACAATA | 0.138 E-score |
| CCTGCCAA | -0.273 E-score |
